Among the data in PubChem BioAssay AID488969 (Vanderbilt High Throughput Screening Facility, 2010) are z-score values, retold here.

Over roughly 110,000 compounds, “z-score” has its median near -0.1; the highest 2% begin near 2. This is one part of the list. Activity calls are given as the source filed them.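 Rule for the calls: active = z-score in the third read window above 3 or below -3; inactive = the rest.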

The target of the test is Metabotropic glutamate receptor 8 (Rattus norvegicus) (UniProt P70579). The test can be described thus: mGluR8 Gi/Go-coupled signaling modulation – cell-based, rat, thallium flux, HTS, primary screen (AID 488969). The conditions noted are these: HEK293 rat mGluR8, GIRK (G protein-gated inwardly rectifying potassium channel) thallium flux, FluoZin2; at 10 µM; stronger effect = higher value; submaximal glutamate (EC20) added with thallium.
Sequence of UniProt P70579 (P70579 whole entry, looked up): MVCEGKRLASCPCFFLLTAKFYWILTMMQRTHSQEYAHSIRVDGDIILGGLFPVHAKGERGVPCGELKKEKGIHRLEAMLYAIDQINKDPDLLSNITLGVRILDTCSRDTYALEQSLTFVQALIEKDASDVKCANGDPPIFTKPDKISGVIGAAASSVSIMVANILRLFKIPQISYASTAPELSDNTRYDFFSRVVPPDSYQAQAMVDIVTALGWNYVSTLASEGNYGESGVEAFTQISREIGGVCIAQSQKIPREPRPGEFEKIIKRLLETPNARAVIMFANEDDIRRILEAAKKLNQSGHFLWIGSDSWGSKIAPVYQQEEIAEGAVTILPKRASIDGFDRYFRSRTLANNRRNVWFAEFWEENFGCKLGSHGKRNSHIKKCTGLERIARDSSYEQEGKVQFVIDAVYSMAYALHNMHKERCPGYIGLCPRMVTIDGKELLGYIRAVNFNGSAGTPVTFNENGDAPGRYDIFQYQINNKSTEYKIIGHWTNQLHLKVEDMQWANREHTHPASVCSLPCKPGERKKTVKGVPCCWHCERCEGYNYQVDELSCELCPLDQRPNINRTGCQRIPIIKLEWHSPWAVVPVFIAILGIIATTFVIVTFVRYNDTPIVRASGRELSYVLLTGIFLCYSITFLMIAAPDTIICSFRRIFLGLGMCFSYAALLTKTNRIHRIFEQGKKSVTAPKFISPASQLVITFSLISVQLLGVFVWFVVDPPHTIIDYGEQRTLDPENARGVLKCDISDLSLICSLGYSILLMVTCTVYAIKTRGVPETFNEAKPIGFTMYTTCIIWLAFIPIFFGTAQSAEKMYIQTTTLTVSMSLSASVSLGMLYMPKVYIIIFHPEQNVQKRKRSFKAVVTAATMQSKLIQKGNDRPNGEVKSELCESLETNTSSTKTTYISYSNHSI
On to `O=C(NC(Nc1nc2ccc([N+](=O)[O-])cc2s1)(C(F)(F)F)C(F)(F)F)c1ccccc1`, for which the z-score is active: 6.52.
Regarding `COc1ccc(CN2CCN(C(=O)c3cccs3)CC2)cc1`, the z-score is -0.485.
The same measure for `CCOc1c(Br)ccc2c1sc1nc[nH]c(=O)c12`: -0.237; for `O=[N+]([O-])c1cccc(-c2nc(-c3ccccc3)c(-c3cccs3)[nH]2)c1`: -0.0655; for `Cc1ccc(C(=O)Oc2cccc(NC(=O)c3ccccc3)c2)cc1C`: -0.0956.
For the compound `Cc1cccc(-c2noc(CN(C(=O)c3c(-c4ccccc4Cl)noc3C)C(C)C)n2)c1`, the z-score stood at 0.261.
For `CCSC1=N/C(=C\c2ccc(-c3ccccc3[N+](=O)[O-])o2)C(=O)S1`, the z-score is -0.287.
In the case of `O=C(CCCSc1nc2ccccc2[nH]1)NCc1ccc(Cl)cc1`, the z-score was -0.328.
The same measure for `O=C(COC(=O)c1ccccc1[N+](=O)[O-])c1ccc(C2CCCCC2)cc1`: 0.0255; for `Cc1ccc(S(=O)(=O)NCCSc2nnnn2-c2ccccc2)cc1`: -0.667.
Regarding `Cc1cnc(NC(=O)CSc2nc3ccccc3s2)s1`, the z-score turned out to be 0.44.
`O=C(COC(=O)[C@@H]1CC(O)CN1S(=O)(=O)c1ccc([N+](=O)[O-])cc1)NC12CC3CC(CC(C3)C1)C2` (some centres undefined) showed a z-score of 0.0589.
`O=C(/C=C/c1cccc([N+](=O)[O-])c1)NCCN1C(=O)S/C(=C\c2ccc(F)cc2)C1=O`: the z-score was -0.249.
Turning to `CC1CN(C2CCN(S(=O)(=O)c3ccc(F)cc3)CC2)CC(C)O1` (centres undefined), the z-score was -0.0455.
In the case of `O=c1c(Cc2ccc(Cl)cc2Cl)c(O)ccn1Cc1ccc(Cl)cc1`, the z-score is -0.479.
For the compound `CCOC(=O)N1CCN(Cc2nc(-c3cccc(C)c3)no2)CC1`, the z-score was -0.0353.
Turning to `Cc1ccc2cn[nH]c2c1NC(=S)NC(=O)c1ccccc1`, the z-score was found to be 0.256.
`Oc1c(CN2CCCCC2)cc(COCc2ccccc2)c2cccnc12` registered a z-score of 0.255.
Consider `Cc1ccc(/C=N/NS(=O)(=O)c2ccc([N+](=O)[O-])cc2)o1`, for which the z-score was -0.0789.
`COc1ccc(CN2C(=O)CCC2(C)C(=O)NC2CCCCC2)c(OC)c1` (centres undefined): the z-score was -0.917.
The same measure for `CC(C)CSc1nnc2[nH]c(=O)cc(N)n12`: -0.321; for `C=CCn1c(SCc2nc3ccccc3nc2C)nnc1-c1ccoc1C`: 0.403; for `Cc1ccc(C2CC(=O)NC(SCc3ccccc3)=C2C#N)cc1` (centres undefined): -0.422.
Consider `O=c1c2ccccc2n(Cc2ccccc2F)c(=O)n1Cc1ccccc1F`, for which the z-score is -0.376.
For `CCc1ccc(NC(=O)C(C)OC(=O)CCC(=O)c2cccs2)cc1` (centres undefined), the z-score was found to be 0.0294.
On to `Cn1c(Cn2nnc3ccccc32)nnc1SCC(N)=O`, for which the z-score was -0.159.
Turning to `CCOc1ccc(-c2[nH]ncc2Oc2ccccc2OCC)c(O)c1`, the z-score is -0.433.
Next, `CCNC(=O)COC(=O)C1C(C(=O)OCC)=C(C)NC(C)=C1C(=O)OCC`: -0.145; `COc1ccc(Cn2nnnc2CN2CCOCC2)cc1`: 0.725.
With `Cc1cccc(N2CCN(C(=O)c3ccc(NS(=O)(=O)c4c(C)noc4C)cc3)CC2)c1C`, the z-score was -0.359.
In the case of `c1ccc(-c2nnc3sc(-c4ccncc4)nn23)cc1`, the z-score is -0.611.
As for `CCCNC(=O)C1=C(C)C(=O)OC12CCC(C)CC2` (centres undefined), the z-score came to 0.192.
For `CSCC[C@H](NC(=O)C(C)Oc1ccc(Cl)cc1)c1nc2ccccc2[nH]1` (some centres undefined), the z-score is -0.164.
The same measure for `CC(=O)N1CCN(C(=O)CC2OC(=O)c3ccccc32)CC1` (centres undefined): 0.277.
Consider `O=C(COc1ccc2c(c1)CCC2)NCc1ccccc1`, for which the z-score was -0.24.
In turn, `Cc1ccc(NC(=O)COc2ccccc2)c(NC(=O)c2ccccc2C)c1` showed a z-score of 0.00484.
With `CCOC(=O)N1CCC(NC(=O)Cc2ccc(-n3c(=O)[nH]c4ccccc4c3=O)cc2)CC1`, the z-score is -0.188.
Compound `COc1ccccc1NC(=O)C1=C(C)NC2=C(C(=O)CCC2)C1c1ccc2c(c1)OCO2` (centres undefined) gave a z-score of 0.742.
For `Cc1nc(-c2ccc(Br)cc2)ccc1C(=O)O`, the z-score is -0.162.
Regarding `Cc1c(C(=O)N2CCN(c3ncccn3)CC2)sc2nc3n(c(=O)c12)CCCC3`, the z-score is 0.452.
In the case of `O=C(O)C1CCN(C(=O)c2scc3c2OCCO3)CC1`, the z-score was -0.53.
Take `Cc1ccc(S(=O)(=O)/N=C(\N)Nc2nc(C)c3ccccc3n2)cc1`: the z-score was -0.281.
`Cc1cc([N+](=O)[O-])ccc1NC(=O)c1cncc(Br)c1`: the z-score is -0.249.
In turn, `CCc1nc2ccccc2c(C(=O)Oc2ccc(C(=O)OC)cc2)c1C` came in with a z-score of 0.354.
As for `O=C(CN1C(=O)CC(c2ccccc2)=Nc2ccccc21)NCc1ccco1`, the z-score is -0.414.
On to `COc1cc(S(=O)(=O)N(C)C)ccc1F`, for which the z-score is -0.0878.
For the compound `CCCN(Cc1ccc(N(C)C)cc1)CC1CC1`, the z-score is -0.858.
The same measure for `Cc1cc(-c2cccs2)nc(-n2cccc2)n1`: -0.173; for `CCOC(=O)CSc1cccc2cccnc12`: active: 4.08; for `Cc1cccc(NC(=O)Cn2cnc3ccc(S(=O)(=O)N4CCC(C)CC4)cc3c2=O)n1`: -0.921.
On to `O=P(O)(O)CP(=O)(O)O`, for which the z-score was 0.0712.
On to `CCc1nc(SCC(=O)NCc2ccccc2)c2c(=O)n(C)c(=O)n(C)c2n1`, for which the z-score is -0.451.
Next, `CCSc1nc2c(c(=O)[nH]1)C(c1cccnc1)C(C(=O)OC(C)C)=C(C)N2` (centres undefined): 0.232.
Compound `CN(C)CCNC(=O)/C(=C/c1ccc(-c2ccc(Cl)cc2Cl)o1)NC(=O)c1ccccc1` registered a z-score of 1.11.
The same measure for `Cc1nn(Cc2ccccc2)c(Cl)c1C(=O)OCc1nnc(-c2ccc(Cl)cc2)o1`: 0.144; for `O=C1CC(c2ccccc2)n2nc(NC(=O)c3ccccc3)nc2N1` (centres undefined): 0.0993.
As to `COc1ccc2nc(C)cc(SCC(=O)Nc3c(C)cc(C)cc3C)c2c1`, the z-score is -0.106.
Regarding `COC(=O)C1=C(NC(=O)c2cccs2)CCS1`, the z-score is -0.0166.
As to `COc1ccc(/C=N\NC(=O)CCc2c(C)n[nH]c2C)c(OC)c1OC`, the z-score was -0.262.
Next, `Cc1nn(-c2ccccc2)c2c1C(c1ccc([N+](=O)[O-])cc1)N1C(=N2)C(=O)Nc2ccccc21` (centres undefined): -0.45.
Next, `Cc1ccc2ncc([N+](=O)[O-])n2c1`: 0.0429; `COC(=O)C1=C(C)N(C2CCCCC2)C(=O)C1`: -0.179; `CC1(C)Cc2c(sc(NC(=O)C(C)(C)C)c2C#N)C(C)(C)N1`: 0.0442.
In the case of `CCOC(=O)c1cc(C(=O)Nc2ccc(C)c(F)c2)nn1C`, the z-score is -0.369.
For the compound `CCOc1c(OC)ccc2c3c(c(=O)oc12)CCCC3`, the z-score was -1.06.
As for `COc1ccc(C(=O)CSc2nnc(CNC(=O)c3ccc(OC)c(OC)c3)n2C)cc1`, the z-score was -0.646.
`CC(C)CCNC(=O)NC(=O)CSc1nnc(COc2ccccc2Cl)o1`: the z-score is -0.278.
As to `CSc1ccc(-c2nnn(Cc3ccc(Br)cc3)n2)cc1`, the z-score was -0.0597.
Next, `COc1cc(NC(=S)N2CCN(C/C=C/c3ccccc3)CC2)cc(OC)c1`: -0.303.
